# The list shows a part of the results.
# Legend:
# Assay in all cases: glycan array binding signal (z-score within array); higher = stronger binding
# Conditions in all cases: glycan notation: IUPAC condensed, linker removed
# [1] = target: Gal(b1-3)GlcNAc(b1-2)Man(a1-3)[Gal(b1-3)GlcNAc(b1-2)Man(a1-6)]Man(b1-4)GlcNAc(b1-4)[Fuc(a1-6)]GlcNAc
# Procedure, shortened: (§1)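 Columns mapping to the same glycan were averaged after glycan names were converted to IUPAC-condensed notation. The data come from 3228 arrays in the Consortium for Functional Glycomics database, limited to those with an available protein sequence. Binding is reported as a within-array Z-score averaged across arrays of one protein sequence and across linkers.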
# [2] = target: Gal(b1-3)GlcNAc(b1-2)Man(a1-3)[GlcNAc(b1-4)][Gal(b1-3)GlcNAc(b1-2)Man(a1-6)]Man(b1-4)GlcNAc(b1-4)GlcNAc
# Procedure, shortened: as §1
# [3] = target: Gal(b1-3)GlcNAc(b1-2)[Gal(b1-3)GlcNAc(b1-6)]Man(a1-6)[Gal(b1-3)GlcNAc(b1-2)Man(a1-3)]Man(b1-4)GlcNAc(b1-4)GlcNAc
# Procedure, shortened: as §1
# [4] = target: Gal(b1-3)GlcNAc(b1-3)Gal(b1-3)GlcNAc
# Procedure, shortened: as §1
# [5] = target: Gal(b1-3)GlcNAc(b1-3)Gal(b1-4)Glc
# Procedure, shortened: as §1
# [6] = target: Gal(b1-3)GlcNAc(b1-3)Gal(b1-4)GlcNAc
# Procedure, shortened: as §1
# [7] = target: Gal(b1-3)GlcNAc(b1-3)Gal(b1-4)GlcNAc(b1-2)Man(a1-3)[Gal(b1-3)GlcNAc(b1-3)Gal(b1-4)GlcNAc(b1-2)Man(a1-6)]Man(b1-4)GlcNAc(b1-4)GlcNAc
# Procedure, shortened: as §1
# [8] = target: Gal(b1-3)GlcNAc(b1-3)Gal(b1-4)GlcNAc(b1-2)[Gal(b1-3)GlcNAc(b1-3)Gal(b1-4)GlcNAc(b1-6)]Man(a1-6)[Gal(b1-3)GlcNAc(b1-3)Gal(b1-4)GlcNAc(b1-2)Man(a1-3)]Man(b1-4)GlcNAc(b1-4)[Fuc(a1-6)]GlcNAc
# Procedure, shortened: as §1
# [9] = target: Gal(b1-3)GlcNAc(b1-3)Gal(b1-4)GlcNAc(b1-3)Gal(b1-4)GlcNAc(b1-2)[Gal(b1-3)GlcNAc(b1-3)Gal(b1-4)GlcNAc(b1-3)Gal(b1-4)GlcNAc(b1-6)]Man(a1-6)[Gal(b1-3)GlcNAc(b1-3)Gal(b1-4)GlcNAc(b1-3)Gal(b1-4)GlcNAc(b1-2)Man(a1-3)]Man(b1-4)GlcNAc(b1-4)[Fuc(a1-6)]GlcNAc
# Procedure, shortened: as §1
# [10] = target: Gal(b1-3)GlcNAc(b1-3)Gal(b1-4)GlcNAc(b1-6)[Gal(b1-3)GlcNAc(b1-3)]Gal(b1-4)Glc
# Procedure, shortened: as §1
# [11] = target: Gal(b1-3)GlcNAc(b1-3)Gal(b1-4)[Fuc(a1-3)]GlcNAc
# Procedure, shortened: as §1
# [12] = target: Gal(b1-3)GlcNAc(b1-3)Gal(b1-4)[Fuc(a1-3)]GlcNAc(b1-6)[Gal(b1-3)GlcNAc(b1-3)]Gal(b1-4)Glc
# Procedure, shortened: as §1
# [13] = target: Gal(b1-3)GlcNAc(b1-3)GalNAc
# Procedure, shortened: as §1
# [14] = target: Gal(b1-3)GlcNAc(b1-6)Gal(b1-4)GlcNAc
# Procedure, shortened: as §1
# [15] = target: Gal(b1-3)GlcNAc(b1-6)GalNAc
# Procedure, shortened: as §1
# [16] = target: Gal(b1-3)GlcNAc(b1-6)[Gal(b1-3)]GalNAc
# Procedure, shortened: as §1
# Gal(b1-3)GlcNAc6S = target: Gal(b1-3)GlcNAc6S
# Procedure, shortened: as §1
# [17] = target: Gal(b1-3)[Fuc(a1-4)]GlcNAc
# Procedure, shortened: as §1
# [18] = target: Gal(b1-3)[Fuc(a1-4)]GlcNAc(b1-2)Man
# Procedure, shortened: as §1
# [19] = target: Gal(b1-3)[Fuc(a1-4)]GlcNAc(b1-2)Man(a1-3)[Gal(b1-3)[Fuc(a1-4)]GlcNAc(b1-2)Man(a1-6)]Man(b1-4)GlcNAc(b1-4)[Fuc(a1-6)]GlcNAc
# Procedure, shortened: as §1
# [20] = target: Gal(b1-3)[Fuc(a1-4)]GlcNAc(b1-3)Gal(b1-3)[Fuc(a1-4)]GlcNAc
# Procedure, shortened: as §1
# [21] = target: Gal(b1-3)[Fuc(a1-4)]GlcNAc(b1-3)Gal(b1-4)[Fuc(a1-3)]GlcNAc
# Procedure, shortened: as §1
# [22] = target: Gal(b1-3)[Fuc(a1-4)]GlcNAc(b1-6)GalNAc
# Procedure, shortened: as §1
# [23] = target: Gal(b1-3)[GlcNAc(b1-6)]GalNAc
# Procedure, shortened: as §1
# [24] = target: Gal(b1-3)[Neu5Ac(a2-6)]GalNAc
# Procedure, shortened: as §1
# [25] = target: Gal(b1-3)[Neu5Ac(a2-6)]GlcNAc(b1-4)Gal(b1-4)Glc
# Procedure, shortened: as §1
# [26] = target: Gal(b1-3)[Neu5Ac(b2-6)]GalNAc
# Procedure, shortened: as §1
# Gal(b1-4)Gal = target: Gal(b1-4)Gal
# Procedure, shortened: as §1
# [27] = target: Gal(b1-4)GalNAc(a1-3)[Fuc(a1-2)]Gal(b1-4)GlcNAc
# Procedure, shortened: as §1
# [28] = target: Gal(b1-4)GalNAc(b1-3)[Fuc(a1-2)]Gal(b1-4)GlcNAc
# Procedure, shortened: as §1
# Gal(b1-4)Glc = target: Gal(b1-4)Glc
# Procedure, shortened: as §1
# Gal(b1-4)Glc6S = target: Gal(b1-4)Glc6S
# Procedure, shortened: as §1
# Gal(b1-4)GlcNAc = target: Gal(b1-4)GlcNAc
# Procedure, shortened: as §1
# [29] = target: Gal(b1-4)GlcNAc(a1-6)Gal(b1-4)GlcNAc
# Procedure, shortened: as §1
# Gal(b1-4)GlcNAc(b1-2)Man = target: Gal(b1-4)GlcNAc(b1-2)Man
# Procedure, shortened: as §1
# [30] = target: Gal(b1-4)GlcNAc(b1-2)Man(a1-3)Man(b1-4)GlcNAc(b1-4)GlcNAc
# Procedure, shortened: as §1
# [31] = target: Gal(b1-4)GlcNAc(b1-2)Man(a1-3)[Gal(b1-4)GlcNAc(b1-2)Man(a1-6)]Man(b1-4)GlcNAc(b1-4)GlcNAc
# Procedure, shortened: as §1
binder,measurement,setting,value
OGAN (protein) MVQKESQATLEERESELSSNPAASAGASLEPPAAPAPGEDNPAGAGGAAVAGAAGGARRFLCGVVEGFYGRPWVMEQRKELFRRLQKWELNTYLYAPKDDYKHRMFWREMYSVEEAEQLMTLISAAREYEIEFIYAISPGLDITFSNPKEVSTLKRKLDQVSQFGCRSFALLFNDIDHNMCAADKEVFSSFAHAQVSITNEIYQYLGEPETFLFCPTEYCGTFCYPNVSQSPYLRTVGEKLLPGIEVLWTGPKVVSKEIPVESIEEVSKIIKRAPVIWDNIHANDYDQKRLFLGPYKGRSTELIPRLKGVLTNPNCEFEANYVAIHTLATWYKSNMNGVRKDVVMTDSEDSTVSIQIKLENEGSDEDIETDVLYSPQMALKLALTEWLQEFGVPHQY,glycan array binding signal (z-score),[1],-0.064
same,glycan array binding signal (z-score),[2],-0.03
same,glycan array binding signal (z-score),[3],-0.047
same,glycan array binding signal (z-score),[4],-0.055
same,glycan array binding signal (z-score),[5],-0.012
same,glycan array binding signal (z-score),[6],-0.064
same,glycan array binding signal (z-score),[7],-0.022
same,glycan array binding signal (z-score),[8],0.166
same,glycan array binding signal (z-score),[9],-0.005
same,glycan array binding signal (z-score),[10],-0.074
same,glycan array binding signal (z-score),[11],-0.062
same,glycan array binding signal (z-score),[12],-0.066
same,glycan array binding signal (z-score),[13],-0.057
same,glycan array binding signal (z-score),[14],-0.078
same,glycan array binding signal (z-score),[15],-0.071
same,glycan array binding signal (z-score),[16],-0.041
same,glycan array binding signal (z-score),Gal(b1-3)GlcNAc6S,-0.082
same,glycan array binding signal (z-score),[17],-0.05
same,glycan array binding signal (z-score),[18],-0.036
same,glycan array binding signal (z-score),[19],-0.008
same,glycan array binding signal (z-score),[20],-0.044
same,glycan array binding signal (z-score),[21],-0.06
same,glycan array binding signal (z-score),[22],-0.029
same,glycan array binding signal (z-score),[23],-0.065
same,glycan array binding signal (z-score),[24],-0.047
same,glycan array binding signal (z-score),[25],-0.068
same,glycan array binding signal (z-score),[26],-0.064
same,glycan array binding signal (z-score),Gal(b1-4)Gal,-0.085
same,glycan array binding signal (z-score),[27],-0.08
same,glycan array binding signal (z-score),[28],-0.063
same,glycan array binding signal (z-score),Gal(b1-4)Glc,-0.066
same,glycan array binding signal (z-score),Gal(b1-4)Glc6S,-0.034
same,glycan array binding signal (z-score),Gal(b1-4)GlcNAc,-0.07
same,glycan array binding signal (z-score),[29],-0.062
same,glycan array binding signal (z-score),Gal(b1-4)GlcNAc(b1-2)Man,-0.044
same,glycan array binding signal (z-score),[30],-0.067
same,glycan array binding signal (z-score),[31],-0.076

# From the supplement of paper PMC8728848
